This is one part of the list.
What follows are compounds tested on T1, C. trachomatis L2/434/Bu expressing GFP (CTL2-GFP). Conditions: total inclusion area; 28.5 h, 10 µM; inhibitor.
T1 construct: L2/434/Bu GFP intracellular growth in HeLa cells
Design: species or system HeLa; C. trachomatis total inclusion area by high-content imaging, normalised to DMSO
Outline: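 After bulk GFP and resorufin fluorescence reads, cells were fixed, stained with Hoechst and imaged by high-content microscopy. Inclusion area and number (GFP) stood in for chlamydial growth, nuclei count (Hoechst) for host cell viability. MICs were derived as for the bulk readout.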

SMILES | % of control remaining
c1cnc(N2CCCC2)c(Sc2nc[nH]n2)n1 [CBK093737] | 104.007
O=C1NC(=O)c2c(NC(=O)C3CCCCC3)cccc21 [CBK019837] | 60.9514
Cc1oc(-c2ccc(Cl)cc2)cc1C(=O)CC#N [CBK047603] | 137.761
Cc1[nH]c(=O)[nH]c(=O)c1CC(=O)N1CCCCC1CN1CCCCC1 (stereo not shown) [CBK286344] | 98.3383
CCC(C)(C)c1ccc(S(=O)(=O)N2CCCN(Cc3ccc4cccc(O)c4n3)CC2)cc1 [CBK063051] | 87.8795
Cc1ccc(C(=O)COC(=O)c2cccc(C)c2O)cc1[N+](=O)[O-] [CBK264081] | 108.222
CCOc1ccc(-c2nc(N)ncc2Oc2ccc(OC)cc2)c(O)c1 [CBK288105] | 119.661
O=C(Nc1nc2c(Br)cccc2s1)c1nc2ccccc2s1 [CBK287619] | 87.3204
CCC(O)Cn1nc(CCSC)nc1-c1cn(C)c(=O)[nH]c1=O (stereo not shown) [CBK306588] | 75.2546
Cc1ccc(CN(C2CCN(C)CC2)S(=O)(=O)c2ccc(F)cc2F)cc1 [CBK160448T] | 41.5723
OCCN1CCN(c2nccnc2-c2ccncc2)CC1 [CBK038084] | 84.0066
Cn1c(=O)n(C)c2cc(S(=O)(=O)NCC3(N)CCOCC3)ccc21 [CBK306266] | 82.5113
Cn1cc(-c2ncc(OCCc3cccs3)nc2N)cn1 [CBK145167] | 137.162
C/N=C1/SC(CC(=O)Nc2cccc(C(=O)O)c2)C(=O)N1C (stereo not shown) [CBK265581] | 107.136
Cn1ccnc1CN(Cc1ccccc1)C1CC(C)(C)NC(C)(C)C1 [CBK283177] | 90.4468
Fc1cnc(Nc2ccccc2)nc1N1CCOCC1 [CBK287279] | 61.6782
C/C(=C1/SC(=S)N(c2cccc(C(=O)O)c2)C1=O)c1cccc([N+](=O)[O-])c1 [CBK265168] | 104.581
COc1ccc(F)c(CN(CC2CCNCC2)C(=O)Nc2c(C)noc2C)c1 [CBK049811] | 91.3072
CNC(=O)c1ccc(-c2cccc(OC(F)(F)F)c2)nc1NCCOC [CBK106000] | 127.826
CCCC/C=C/c1cncc(NC(C)CCCC(C)(C)O)n1 (stereo not shown) [CBK065505] | 107.169
Cc1cc(C)c(C)c(S(=O)(=O)N2CCN(c3ncnc4sc(C)c(C)c34)CC2)c1C [CBK265297] | 95.0468
O=C1CCC(=O)N1Cc1cccc(-c2ccnc(NS(=O)(=O)c3ccc(Cl)cc3)n2)c1 [CBK067436] | 83.272
